Measurements published in ChEMBL document CHEMBL4888484, “Replenishing the malaria drug discovery pipeline: Screening and hit evaluation of the MMV Hit Generation Library 1 (HGL1) against asexual blood stage Plasmodium falciparum ,using a nano luciferase reporter read-out” (2022).
Screen size: about 150,000 compounds; about 540 (0.36%) showed an effect of 50% or more. The list shows a part of the results.

Tested on: Plasmodium falciparum
Assay: Primary screen in NF54 nanoGlo assay, in single point, at 2uM, 72h; a lower Z score goes with more inhibition
Format: functional, Erythrocyte
Conditions: timepoint 72 hour

Compound	% Inhibition	Z score
C[C@@H](C1CC1)N(C)S(=O)(=O)c1ccc2c(c1)NC(=O)CO2	-12%	1.11
Cc1cccc(Cn2c(-c3[nH]cnc3C)n[nH]c2=O)c1	-6%	1.16
CC(C)CCNC(=O)C1CN(C(=O)c2ccc3c(c2)OCO3)CC1c1ccc(F)cc1 (configuration not stated)	7%	-0.84
OCc1cc2n(n1)CCN(c1ncc(C(F)(F)F)cc1Cl)C2	-23%	2.3
Cn1cccc1CNC1CCCCCC1C(N)=O (configuration not stated)	36%	-4.91
Cc1noc(C)c1S(=O)(=O)Nc1ccccc1C(=O)NCc1ccco1	0%	-0.04
COC(=O)CN1CCCN(Cc2cnc(C(C)(C)C)s2)CC1	0%	0.01
CC(NC(=O)NCC1CCCO1)C(C)(C)C (configuration not stated)	-15%	2.38
Cn1nccc1CC(=O)N1CCOC[C@H]1C1CCC1	-7%	1.31
COCc1nc(C)c(C(=O)OCC#Cc2ccccn2)s1	-6%	1.15
O=C(C1CC2C=CC1C2)N1CCc2ccccc2C1 (configuration not stated)	-18%	2.11
CC1(C(=O)N[C@H]2CCn3ccnc32)COC1	-19%	2
COCC(=O)NC1CCN(Cc2nc(-c3cccs3)no2)CC1	0%	0.07
Cc1nc(-c2ccc3c(c2)n(CC(=O)Nc2ccccc2C)c(=O)n3C(C)C)no1	-9%	1.08
CCc1cnccc1C(=O)Nc1cccc(-n2cnnc2)c1	-9%	1.65
Cc1cccc(NC(=O)Cn2nc(C(=O)N3CCN(C)CC3)cc2C)c1C	4%	-0.78
CCn1c(C)nc2cc(NS(=O)(=O)c3ccccc3)cc(C(=O)NCc3cccc(F)c3F)c21	-8%	1.46
Cc1cc(=O)c(C(=O)N2CCC[C@H](C#N)C2)cn1C	4%	-0.6
COCCN1CCN(c2ncc(F)cn2)CC1=O	3%	-0.42
Cc1cc(C)nc(CCNC(=O)c2nc3ncccn3n2)n1	-16%	2.09
CN(C[C@H]1CCOC1)S(=O)(=O)Cc1cccc(Cl)c1	-2%	0.31
Cc1ccc(N2CCCC2)c(C(=O)N(C)CCn2cccn2)c1	-4%	0.53

Compound	% Inhibition	Z score
O=C(Cn1nnn(-c2ccc(NC(=O)c3cc(Cl)ccc3Cl)cc2)c1=O)NC1CC1	-8%	1.54
COCCn1ccnc1CN(C)C[C@H]1CCOC1	-11%	2.13
C[C@@H](c1cccnc1)N(C)Cc1nc2c(s1)CCC2	-18%	3.45
COc1ccc(S(=O)(=O)N(C)c2ccc3sc(C(=O)N4CCOCC4)cc3c2)cc1	-8%	0.99
O=C(O)[C@H]1CCCN1C(=O)CCCc1ccc(F)c(F)c1	-3%	0.35
Cn1cc(C(=O)N2CC=C(c3c[nH]c4ccccc34)CC2)cn1	-6%	0.88
CCN1CCCN(C(=O)c2cc(O)nc3c(F)cc(C)cc23)CC1	-3%	0.45
CCC(C)C(NC(=O)N1CCCN(CC)C(=O)C1)C(F)(F)F (configuration not stated)	5%	-0.68
O=C(c1cn(C(c2ccccc2)c2ccccc2)nn1)N(Cc1ccccc1)CC1CC1	-1%	0.16
N#Cc1cc(CN(Cc2cccnc2)Cc2ccco2)ccc1F	3%	-0.5
CCn1cc(Br)c(=O)c(NC(=O)c2cn(C(C)(C)C)nn2)c1	4%	-0.5
CCc1nsc(N[C@H]2CCCCCN(C(=O)c3nccnc3N)C2)n1	-3%	0.41
COc1ccc(OC)c(-c2ccc3c(c2)CN(C)C3=O)c1	-5%	0.83
Cc1nc(CNCc2c[nH]nc2-c2cccnc2)cs1	-14%	1.89
COc1ccc(CCNC(=O)c2ccc[n+]([O-])c2)cc1OC	6%	-0.78
CN(C)S(=O)(=O)c1ccc(-c2noc(C3(C#N)CCCC3)n2)cc1	-9%	0.78
CO[C@H]1CCCOC12CCN(C(=O)c1ccc(-n3nc(C)cc3C)cc1)CC2	-12%	1.85
CC(C)c1noc(Cc2ccc(NC(=O)CC3CC3)cc2)n1	-6%	0.69
CN1C(=O)C2(CCN(C(=O)CCC3CCCC3)CC2)c2ccccc21	-7%	1.09
C[C@]1(O)CCN(c2nc3ccccc3s2)C[C@H]1Cc1ccccc1	-16%	1.55
CC(C)c1nc(-c2noc(CCn3cnccc3=O)n2)cs1	2%	-0.32
CS(=O)(=O)Cc1ccc(-c2ccc(OCc3ccccc3)nc2)nc1	3%	-0.45

Compound	% Inhibition	Z score
CC1(C)CCC[C@H](CS(=O)(=O)NCCc2cnoc2)O1	-5%	0.79
Cc1cc2ncc3c(n2n1)CCN(C(=O)c1cc2ccccc2[nH]1)C3	3%	-0.51
COc1cccc([C@H](CNC(=O)C2CCN(S(=O)(=O)c3ccc4c(c3)CCC4)CC2)N(C)C)c1	-12%	1.08
Cc1cccc(N2CCN(C(=O)C(C)(C)c3c[nH]cn3)CC2)c1C	-9%	1.58
Cc1nn(-c2ccccc2)c(Oc2ccccc2)c1CN(CC(C)C)C(=O)c1cccc(F)c1	-11%	1.04
O=C(C1CC1c1ccccc1F)N1CCCC(CN2CCOCC2)C1 (configuration not stated)	-16%	2.3
O=C(NC1CCCCC1)c1ccc(-n2ccnc2-c2cccnc2)cc1	-6%	0.54
Cc1ccc(C)c(C(=O)N2CCC3(CC2)N(C)C(=O)CS3(=O)=O)c1	-13%	1.91
Cc1ccsc1-c1noc([C@H]2CCC(=O)NC2)n1	-7%	1.33
Cn1nc(-c2cccc(Cl)c2)cc1C(=O)N1CCO[C@H](c2ccccc2)C1	-9%	1.18
O=C(CS(=O)(=O)c1ccccc1)NCc1ccncc1	-8%	1.02
COc1ccnc(N2CCc3ccc(F)cc32)n1	1%	-0.21
Cn1ccnc1C1CC(NC(=O)C2CC(C)(C)Oc3ccccc32)CCO1 (configuration not stated)	-4%	0.68
Cc1nn(CCO)c(C)c1[C@@H]1NCCc2[nH]cnc21	-16%	2.3
CCCN(CCO)[C@@H](C(=O)O)c1ccc(OC(C)C)cc1	7%	-1.03
COc1cc([C@H]2CC(=O)Nc3c2c(=O)[nH]n3C2CCCCC2)ccc1O	28%	-3.16
CC1(C)CN(S(=O)(=O)c2cncc(C#N)c2)[C@H]2COC[C@H]21	-7%	0.8
COc1cccc(-c2n[nH]c3c2CN(c2cc(NCCO)ncn2)CC3)c1	1%	-0.22
CC(C)(O)c1cn(C2CN(C(=O)Nc3ccccc3)C2)nn1	-6%	1.01
O=C(N[C@@H](Cc1ccccc1)c1nnc(N2CCCCC2)o1)c1ccc(Br)o1	12%	-1.41
Cc1ccc2c(c1)CCCN2C(=O)[C@H]1CCc2[nH]c(C)nc2C1	-2%	0.29
CCc1oc2c(NC(=O)NCCN3CCC[C@H](C(N)=O)C3)cccc2c1C	-1%	0.28

Compound	% Inhibition	Z score
N#Cc1ccc(NC(=O)C[C@@H]2C=CCC2)nc1	-9%	1.46
CC1CCCN(S(=O)(=O)NC(C)c2ccccn2)C1 (configuration not stated)	-9%	0.95
O=C(c1cc(C2CC2)[nH]c(=O)c1)N1CCc2[nH]c3ccc(F)cc3c2C1	-12%	1.97
COCCCS(=O)(=O)N(C)Cc1cccc(Cl)c1Cl	10%	-1.15
CC(C)Oc1ccc(CN[C@H]2CCCc3nc(N(C)C)ncc32)cc1	5%	-0.73
COCCN(C)CC(=O)NCc1c(C)nn(C(C)C)c1C	-8%	1.56
O=C(NCCc1csc(-c2ccccc2)n1)c1ccc(-n2ccnc2)nn1	-12%	2.35
CCn1c(CNC(C)C2CCCO2)nc2c(F)cccc21 (configuration not stated)	-2%	0.45
COc1ccc(-c2ccc3c(c2)C(=O)N2C[C@@H](NS(=O)(=O)c4ccc(F)cc4)C[C@H]2C(=O)N3)cc1	30%	-3.34
CCN(CC)C(=O)[C@@H](C)[C@@H]1CC[C@@]2(C)CC[C@H](NC(=O)c3cccc(F)c3)[C@@H](C)[C@@H]2[C@H]1O	-12%	1.6
Cc1cc(NC(=O)COc2ccccc2Br)nnc1C	-10%	1
CCC(CC)C(=O)N1C[C@@H]2Oc3ncccc3C(=O)N(C)[C@@H]2C1	-5%	0.7
Cc1ccsc1CN(CCO)Cc1cccs1	-3%	0.43
Cc1ccc(O)c(C(=O)NC2CCN(c3cnccn3)CC2)c1	2%	-0.43
Cc1cnccc1CNC(=O)N1CCCC1CC(O)c1ccco1 (configuration not stated)	-1%	0.07
Cc1ccc(NC(=O)c2cnn(-c3ccncc3)c2C)c(Cl)c1	-17%	1.7
CC(=O)Nc1ccc(Cl)c(Cl)c1C	-5%	0.77
N#CCCN(CC1CC1)S(=O)(=O)Cc1ccc(Cl)cc1C#N	-12%	1.37
CCCCc1nc(-c2nccn2CCS(=O)(=O)N(C)C)c[nH]1	32%	-2.82
CC1CC(NCC(=O)NCC2CC2)CN(C(=O)OC(C)(C)C)C1 (configuration not stated)	30%	-3.77
